Values of other authors in PubChem BioAssay AID1259409 (Chemical Carcinogenesis Research Information System (CCRIS), 2018).
This continues a long series; more values of the same kind are listed elsewhere.

Test system: rodent chemically induced tumor inhibition, incidence and multiplicity
Assay: CCRIS tumor inhibitor studies
Conditions: Carcinogen: 7,12-DIMETHYLBENZ[A]ANTHRACENE, 57-97-6, Carcinogen: 7,12-DIMETHYLBENZ[A]ANTHRACENE, Route [Inhibitor]: ORAL, Species: RAT, Strain/Sex: SPRAGUE-DAWLEY/FEMALE, Promoter: NONE USED
From the text: The CCRIS database contains chemical records with carcinogenicity, mutagenicity, tumor promotion, and tumor inhibition test results. It was developed by the National Cancer Institute (NCI). Data are derived from studies cited in primary journals, current awareness tools, NCI reports, and other sources. Test results have been reviewed by experts in carcinogenesis and mutagenesis.
CCRIS provides historical information from the years 1985 - 2011. It is no longer updated.
This is an archive assay for CCRIS tumor inhibitor studies.

O=[Se](O)O
tumour outcome (control, treated, inhibition, significance) (57-97-6, Dose [Inhibitor]: 1.05 UG/G OF A TORULA YEAST DIET DAILY FOR 36 D STARTING 22 D BEFORE CARCINOGEN TREATMENT FOLLOWED BY 0.21 UG/G OF A PUR, Dose [Inhibitor]: 1.05 UG/G OF A TORULA YEAST DIET DAILY FOR 36 D STARTING 22 D BEFORE CARCINOGEN TREATMENT FOLLOWED BY 0.21 UG/G OF A PUR, Target Tissue: Type of Lesion: MAMMARY GLAND: CARCINOMA, Dose [Carcinogen]: 7.5 MG IN 1.0 ML SESAME OIL ONCE AT 50 D OF AGE): 20/25 (80%), 17/23 (74%), 8%, not significant
tumour outcome (control, treated, inhibition, significance) (57-97-6, Dose [Inhibitor]: 1.05 UG/G OF A TORULA YEAST DIET DAILY FOR 36 D STARTING 22 D BEFORE CARCINOGEN TREATMENT FOLLOWED BY 0.21 UG/G OF A PUR, Dose [Inhibitor]: 1.05 UG/G OF A TORULA YEAST DIET DAILY FOR 36 D STARTING 22 D BEFORE CARCINOGEN TREATMENT FOLLOWED BY 0.21 UG/G OF A PUR, Target Tissue: Type of Lesion: MAMMARY GLAND: CARCINOMA, Dose [Carcinogen]: 15 MG IN 1.0 ML SESAME OIL ONCE AT 50 D OF AGE): 17/17 (100%), 17/19 (89%), 11%, not significant
tumour outcome (control, treated, inhibition, significance) (57-97-6, Dose [Inhibitor]: 2.06 UG/G OF A TORULA YEAST DIET DAILY FOR 36 D STARTING 22 D BEFORE CARCINOGEN TREATMENT FOLLOWED BY 0.21 UG/G OF A PUR, Dose [Inhibitor]: 2.06 UG/G OF A TORULA YEAST DIET DAILY FOR 36 D STARTING 22 D BEFORE CARCINOGEN TREATMENT FOLLOWED BY 0.21 UG/G OF A PUR, Target Tissue: Type of Lesion: MAMMARY GLAND: CARCINOMA, Dose [Carcinogen]: 7.5 MG IN 1.0 ML SESAME OIL ONCE AT 50 D OF AGE): 20/25 (80%), 19/24 (79%), 1%, not significant
tumour outcome (control, treated, inhibition, significance) (57-97-6, Dose [Inhibitor]: 2.06 UG/G OF A TORULA YEAST DIET DAILY FOR 36 D STARTING 22 D BEFORE CARCINOGEN TREATMENT FOLLOWED BY 0.21 UG/G OF A PUR, Dose [Inhibitor]: 2.06 UG/G OF A TORULA YEAST DIET DAILY FOR 36 D STARTING 22 D BEFORE CARCINOGEN TREATMENT FOLLOWED BY 0.21 UG/G OF A PUR, Target Tissue: Type of Lesion: MAMMARY GLAND: CARCINOMA, Dose [Carcinogen]: 15 MG IN 1.0 ML SESAME OIL ONCE AT 50 D OF AGE): 17/17 (100%), 14/16 (88%), 12%, not significant
tumour outcome (control, treated, inhibition, significance) (57-97-6, Dose [Inhibitor]: 2.5 PPM IN DIET DAILY STARTING AT WEANING AND CONTINUING FOR DURATION OF STUDY (STUDY DURATION: 25 WK), Dose [Inhibitor]: 2.5 PPM IN DIET DAILY STARTING AT WEANING AND CONTINUING FOR DURATION OF STUDY (STUDY DURATION: 25 WK), Target Tissue: Type of Lesion: MAMMARY GLAND: NEOPLASM, Dose [Carcinogen]: 5 MG ONCE AT 50 D OF AGE): 16/25 (64%), 9/25 (36%), 44%, p<0.05
tumour outcome (control, treated, inhibition, significance) (57-97-6, Dose [Inhibitor]: 2.5 PPM IN DIET DAILY STARTING AT WEANING AND CONTINUING UNTIL 1 WK AFTER CARCINOGEN TREATMENT (STUDY DURATION: 25 WK), Dose [Inhibitor]: 2.5 PPM IN DIET DAILY STARTING AT WEANING AND CONTINUING UNTIL 1 WK AFTER CARCINOGEN TREATMENT (STUDY DURATION: 25 WK), Target Tissue: Type of Lesion: MAMMARY GLAND: NEOPLASM, Dose [Carcinogen]: 5 MG ONCE AT 50 D OF AGE): 16/25 (64%), 15/25 (60%), 6%, not significant
tumour outcome (control, treated, inhibition, significance) (57-97-6, Dose [Inhibitor]: 3.4 PPM IN DRINKING WATER DAILY FOR 104 D STARTING 7 D AFTER CARCINOGEN TREATMENT AND CONTINUING FOR DURATION OF STUDY (, Dose [Inhibitor]: 3.4 PPM IN DRINKING WATER DAILY FOR 104 D STARTING 7 D AFTER CARCINOGEN TREATMENT AND CONTINUING FOR DURATION OF STUDY (, Target Tissue: Type of Lesion: MAMMARY GLAND: CARCINOMA, Dose [Carcinogen]: 5 MG IN 1 ML SESAME OIL ONCE AT 50 D OF AGE): 38%, 5%, 87%, p<0.01
